{"source": "paper PMC4336329", "about": "(PLoS ONE, 2015)", "note": "Out of some 310,000 compounds screened, about 2,200 (0.71%) showed an effect of 50% or more. The effect is printed as a negative number. The list shows a part of the results."}
{"molecular_target": "human ether-à-go-go-related gene (hERG) potassium channel (human, UniProt Q12809)", "sequence (Q12809 whole entry, looked up)": "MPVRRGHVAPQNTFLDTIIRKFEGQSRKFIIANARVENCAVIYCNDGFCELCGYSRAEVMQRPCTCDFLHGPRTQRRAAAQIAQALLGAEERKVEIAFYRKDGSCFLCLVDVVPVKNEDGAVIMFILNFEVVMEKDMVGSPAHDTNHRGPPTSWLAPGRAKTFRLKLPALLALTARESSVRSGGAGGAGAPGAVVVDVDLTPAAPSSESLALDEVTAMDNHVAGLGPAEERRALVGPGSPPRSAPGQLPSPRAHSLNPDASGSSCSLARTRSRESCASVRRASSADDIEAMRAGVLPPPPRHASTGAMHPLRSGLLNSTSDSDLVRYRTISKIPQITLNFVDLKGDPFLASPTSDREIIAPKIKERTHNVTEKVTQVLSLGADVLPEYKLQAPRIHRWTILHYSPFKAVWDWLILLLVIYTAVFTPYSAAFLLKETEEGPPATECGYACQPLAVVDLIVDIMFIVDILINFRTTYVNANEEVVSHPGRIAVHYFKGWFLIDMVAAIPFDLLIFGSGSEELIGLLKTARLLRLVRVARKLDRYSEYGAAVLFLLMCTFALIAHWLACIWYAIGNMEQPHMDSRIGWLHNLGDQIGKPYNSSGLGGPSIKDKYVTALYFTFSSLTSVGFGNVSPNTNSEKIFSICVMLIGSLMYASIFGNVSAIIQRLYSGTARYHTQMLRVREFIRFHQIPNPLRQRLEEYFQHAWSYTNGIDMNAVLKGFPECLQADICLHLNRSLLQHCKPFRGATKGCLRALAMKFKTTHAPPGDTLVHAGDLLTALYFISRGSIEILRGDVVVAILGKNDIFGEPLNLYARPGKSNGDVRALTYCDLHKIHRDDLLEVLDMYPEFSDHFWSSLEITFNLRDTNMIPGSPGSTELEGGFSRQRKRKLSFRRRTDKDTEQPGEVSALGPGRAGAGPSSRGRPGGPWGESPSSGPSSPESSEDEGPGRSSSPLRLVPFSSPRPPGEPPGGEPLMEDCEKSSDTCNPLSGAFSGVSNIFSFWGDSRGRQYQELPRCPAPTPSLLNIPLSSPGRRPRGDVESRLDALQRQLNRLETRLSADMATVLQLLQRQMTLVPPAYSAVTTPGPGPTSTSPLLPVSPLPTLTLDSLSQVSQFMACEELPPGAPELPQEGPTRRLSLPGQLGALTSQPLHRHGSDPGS", "experiment": "primary screen, population patch clamp on CHO cells stably expressing hERG", "units": {"hERG current change (%, negative = inhibition) at 1uM": "%"}}
{"compound": "O=C(CN1C(=O)COc2ccccc21)NCc1ccc(C(=O)O)cc1", "hERG current change (%, negative = inhibition) at 1uM": 9.44}
{"compound": "O=C(Nc1nncs1)c1ccccc1NS(=O)(=O)c1cccs1", "hERG current change (%, negative = inhibition) at 1uM": 17.3}
{"compound": "Oc1ccc(C23CCCC2C2(CCCC2)c2ccc(O)cc2O3)c(O)c1", "note": "(stereo not drawn)", "hERG current change (%, negative = inhibition) at 1uM": 0.346}
{"compound": "COc1ccc(N(CC(=O)N2CCC(C)CC2)S(=O)(=O)c2c(C)nn(C)c2C)cc1", "hERG current change (%, negative = inhibition) at 1uM": -3.44}
{"compound": "Cc1nc(SCC(=O)Nc2cc(Cl)ccc2[N+](=O)[O-])nc(C)c1C", "hERG current change (%, negative = inhibition) at 1uM": 13.8}
{"compound": "CC(=O)O[C@@H]1[C@@]2(C)O[C@H]2CC[C@]23O[C@H]2[C@H](OC3=O)C2=C(C)C(=O)O[C@@]21O", "hERG current change (%, negative = inhibition) at 1uM": 11.3}
{"compound": "Cc1cc(C)n(CCN(C)C(=O)CCc2nnc(-c3ccc4c(c3)OCO4)o2)n1", "hERG current change (%, negative = inhibition) at 1uM": -1.26}
{"compound": "Cc1cc(C)c(C)c(S(=O)(=O)NCCCN2CCCC2=O)c1C", "hERG current change (%, negative = inhibition) at 1uM": 2.35}
{"compound": "COc1ccc(Cc2noc(CN3CCN(Cc4cccc(Cl)c4)CC3)n2)cc1OC", "hERG current change (%, negative = inhibition) at 1uM": 6.24}
{"compound": "NC(=O)c1nsc(C(=O)N(CC(=O)NC2CCCC2)c2cccc(C(F)(F)F)c2)c1N", "hERG current change (%, negative = inhibition) at 1uM": -4.62}
{"compound": "CCOc1cc(-c2nc(-c3ccccc3OC)no2)cc(OCC)c1OCC", "hERG current change (%, negative = inhibition) at 1uM": 7.99}
{"compound": "O=C(O)Cn1cc(C(=O)c2ccccc2)c2ccccc21", "hERG current change (%, negative = inhibition) at 1uM": 4.8}
{"compound": "Cc1cc(C)c(C#N)c(SCC(O)CS(=O)(=O)Cc2ccccc2)n1", "note": "(stereo not drawn)", "hERG current change (%, negative = inhibition) at 1uM": 11.8}
{"compound": "C=CCNC(=O)COC(=O)c1oc2ccccc2c1CSC1CCCCC1", "hERG current change (%, negative = inhibition) at 1uM": -0.3}
{"compound": "COCCOC(=O)c1c(C)n(C)c2ccc(OC(=O)c3ccccc3OC)cc12", "hERG current change (%, negative = inhibition) at 1uM": 20.2}
{"compound": "O=c1oc(CCO)cc2ccc(-c3ccc4[nH]ccc4c3)cc12", "hERG current change (%, negative = inhibition) at 1uM": 15.1}
{"compound": "COc1cc(NC2c3ccccc3C(=O)N2Cc2ccc3c(c2)OCO3)cc(OC)c1OC", "note": "(stereo not drawn)", "hERG current change (%, negative = inhibition) at 1uM": 11.3}
{"compound": "COc1ccc(S(=O)(=O)Nc2noc3ccccc23)cc1", "hERG current change (%, negative = inhibition) at 1uM": 15.1}
{"compound": "O=C(CSc1ccc2nnc(-c3cccnc3)n2n1)N1CCOCC1", "hERG current change (%, negative = inhibition) at 1uM": -0.455}
{"compound": "O/N=C/C1=C(Cl)c2ccccc2CC1", "hERG current change (%, negative = inhibition) at 1uM": 2.45}
{"compound": "CC(=O)Nc1ccc(S(=O)(=O)NCCC(=O)OCC(=O)c2ccccc2)cc1", "hERG current change (%, negative = inhibition) at 1uM": 6.41}
{"compound": "O=C(NCCCn1ccnc1)c1ccc(Cl)s1", "hERG current change (%, negative = inhibition) at 1uM": 11.2}
{"compound": "O=C(CN(C(=O)CNC(=O)c1cccs1)c1ccc(F)cc1)NC1CCCCC1", "hERG current change (%, negative = inhibition) at 1uM": 8.13}
{"compound": "N/C(=N\\S(=O)(=O)c1cc(C(F)(F)F)cc(C(F)(F)F)c1)c1ccc(Cl)cc1", "hERG current change (%, negative = inhibition) at 1uM": 7.79}
{"compound": "COc1cccc(/C=N/Nc2ncnc3c2[nH]c2ccc(C)cc23)c1OC", "hERG current change (%, negative = inhibition) at 1uM": 14.1}
{"compound": "NNC(=O)c1csc(Cc2c(Cl)sc3ccc(Cl)cc23)n1", "hERG current change (%, negative = inhibition) at 1uM": 14.8}
{"compound": "CC(=O)c1cnc(SCc2ccc(Cl)cc2)nc1C", "hERG current change (%, negative = inhibition) at 1uM": 15.1}
{"compound": "CCOCCCNC(=O)N[C@@H](C)C(=O)OC", "hERG current change (%, negative = inhibition) at 1uM": 3.27}
{"compound": "CCN(CC)CCNc1ncnc2c1sc1nc(N3CCCC3)c3c(c12)CC(C)(C)OC3", "hERG current change (%, negative = inhibition) at 1uM": -3.38}
{"compound": "Cc1ccc2[nH]cc(C(=O)CN3CCN(c4ccccc4F)CC3)c2c1", "hERG current change (%, negative = inhibition) at 1uM": -1.44}
{"compound": "Cc1nn(Cc2ccccc2)c(C)c1CNC(=O)c1ccc(F)c(S(=O)(=O)N2CCOCC2)c1", "hERG current change (%, negative = inhibition) at 1uM": -14.5}
{"compound": "N#CCCN1CCN(S(=O)(=O)c2ccc(S(=O)(=O)NC3CCCC3)cc2)CC1", "hERG current change (%, negative = inhibition) at 1uM": -0.309}
{"compound": "CCc1nonc1NC(=O)c1oc2cc(C)c(C)cc2c1C", "hERG current change (%, negative = inhibition) at 1uM": 16.1}
{"compound": "Cc1ccc2nc3c(cc(C(=O)NC4CCCC4)c(=N)n3CCCn3ccnc3)c(=O)n2c1", "hERG current change (%, negative = inhibition) at 1uM": -2.46}
{"compound": "O=C(CN1C(=O)c2ccccc2S1(=O)=O)NCc1ccccc1Cl", "hERG current change (%, negative = inhibition) at 1uM": 8.29}
{"compound": "COc1ccc(-c2cc(COc3ccccc3)on2)cc1", "hERG current change (%, negative = inhibition) at 1uM": 27.2}
{"compound": "O=C(c1ccccc1[N+](=O)[O-])N1CCC(Cc2ccccc2)CC1", "hERG current change (%, negative = inhibition) at 1uM": 7.67}
{"compound": "O=C(OCC(=O)N1CCCC1=O)c1cccc(S(=O)(=O)N2CCOCC2)c1", "hERG current change (%, negative = inhibition) at 1uM": 11.7}
{"compound": "CC(C)Cn1c([N+](=O)[O-])nc2c1c(=O)[nH]c(=O)n2C", "hERG current change (%, negative = inhibition) at 1uM": 13.5}
{"compound": "Cc1occc1-c1nnc(SCC(=O)NC(=O)NC(C)C)n1N", "hERG current change (%, negative = inhibition) at 1uM": 11.6}
{"compound": "CCCOc1ccc(N2C(=O)CC(N(Cc3ccccc3)N=O)C2=O)cc1", "note": "(stereo not drawn)", "hERG current change (%, negative = inhibition) at 1uM": 8.66}
{"compound": "CC1(C)C2([N+](=O)[O-])CN(CCO)CC1([N+](=O)[O-])CN(CCO)C2", "hERG current change (%, negative = inhibition) at 1uM": 5.48}
{"compound": "C=CCNC(=O)c1onc(CSc2cccc(Cl)c2)c1C(=O)O", "hERG current change (%, negative = inhibition) at 1uM": 12}
{"compound": "CCN(CC(=O)Nc1ccc(NC(C)=O)cc1)C(=O)/C=C/c1cn(-c2ccccc2)nc1-c1ccc(F)cc1", "hERG current change (%, negative = inhibition) at 1uM": 7.35}
{"compound": "CCC(CC)c1nnc(NS(=O)(=O)Cc2ccccc2)s1", "hERG current change (%, negative = inhibition) at 1uM": 11}
{"compound": "CCCNS(=O)(=O)c1ccc(CCC(=O)NCc2ccco2)cc1", "hERG current change (%, negative = inhibition) at 1uM": 5.52}
{"compound": "COCc1nnc(NC(=O)c2ccc(OC)cc2OC)s1", "hERG current change (%, negative = inhibition) at 1uM": 11.3}
{"compound": "CCCCNC(=O)Nc1nnc(-c2ccc(Cl)cc2)o1", "hERG current change (%, negative = inhibition) at 1uM": 11.7}
{"compound": "Cl.O=C(c1ccc(Cl)cc1)N1CCN(CCc2ccccn2)CC1", "hERG current change (%, negative = inhibition) at 1uM": -53.7}
{"compound": "CC(=O)Nc1ccc(C(=O)NC2CCCC2)cc1", "hERG current change (%, negative = inhibition) at 1uM": 6.35}
{"compound": "Cn1cc(SCC(=O)Nc2nccs2)c2ccccc21", "hERG current change (%, negative = inhibition) at 1uM": 11.2}
{"compound": "CCCCn1nc2cc(C(=O)NCCc3ccc(C)cc3)ccc2c1OCC", "hERG current change (%, negative = inhibition) at 1uM": 11.8}
{"compound": "Cc1cc(NC(=O)CSc2nccn2-c2ccc(F)cc2)no1", "hERG current change (%, negative = inhibition) at 1uM": -5.83}
{"compound": "CC1CC(=O)N(CC(=O)NCc2ccc(F)cc2)c2ccccc2S1(=O)=O", "note": "(stereo not drawn)", "hERG current change (%, negative = inhibition) at 1uM": 7}
{"compound": "CSc1ccccc1C(=O)NCc1ccccc1", "hERG current change (%, negative = inhibition) at 1uM": 12.7}
{"compound": "CCC(C(=O)Nc1ccccc1N1CCCC1)c1ccccc1", "note": "(stereo not drawn)", "hERG current change (%, negative = inhibition) at 1uM": 6.49}
{"compound": "CN1c2ccccc2Oc2nnc(Cl)cc21", "hERG current change (%, negative = inhibition) at 1uM": 4.66}
